The full ranking holds about 5,400 compounds; the median of “IFI” is about 2, and the highest 2% start at about 22. The list shows a part of the results.
Assay: NOVARTIS: Inhibition Frequency Index (IFI) - the number of HTS assays where a compound showed > 50% inhibition/induction, expressed as a percentage of the number of assays in which the compound was tested.
Format: functional

Structure (SMILES)	IFI [%]
Cc1ccc(C(=O)NNc2nc(Nc3ccccc3)nc(N3CCCC3)n2)cc1	0.73
O=C1Nc2ccc(Br)cc2C12NCCc1c2[nH]c2ccccc12 (stereo not given)	1.09
COc1ccccc1-n1nnnc1SCC(=O)Nc1cc([N+](=O)[O-])ccc1C	2.75
Cc1cc(C)n(-c2ccc(NC(=O)C3CCN(Cc4ccc5nonc5c4)CC3)cc2)n1	0
Cc1cc(Nc2cccc(C(F)(F)F)c2)nc(NCc2ccccc2)n1	5.88
CC(C)(C)c1ccc(NC(=O)CN2CCCCC2)cc1	2.65
CC1CN(C(=O)c2sc3cccc(F)c3c2Cl)CC(C)O1 (stereo not given)	0
Cc1nc(N2CCCCC2)c2c(C)c(C(=O)N3CCN(c4ccccc4F)CC3)sc2n1	0
CCN1C(=Cc2sc3ccc(O)cc3[n+]2CC)C=Cc2cc(C)ccc21	15.4
CCCC[C@@H](C)[C@@H](O)[C@H]1C(=O)N[C@@H](C(C)C)C(=O)N(C)[C@H](SC)C(=O)N(C)[C@@H](CC(C)C)C(=O)N[C@@H](C(C)C)C(=O)N(C)[C@@H](CC(C)C)C(=O)N[C@@H](C)C(=O)N[C@H](C)C(=O)N(C)[C@@H](CC(C)C)C(=O)N(C)[C@@H](CC(C)C)C(=O)N(C)[C@@H](C(C)C)C(=O)N1C	4.88
Cc1cc2c(Nc3cccc(Cl)c3C)ncnc2s1	0
CCc1cccc(NC(=O)N2CCN(C(=O)c3nc(-c4ccccc4)nc(C)c3C(=O)OC(C)C)CC2C)c1 (stereo not given)	1.89
CC(=O)Oc1ccc(C(=O)C(C(C)=O)c2ccccc2)c(OC(C)=O)c1 (stereo not given)	0
CCOc1ccccc1C(=O)NC(Nc1sc2c(c1C(N)=O)CCCC2)(C(F)(F)F)C(F)(F)F	0
CC(=O)N1CCN(c2ccc(NC(=S)NC(=O)c3ccc(C)cc3)cc2)CC1	0
COc1ccc(NC(=O)CCCCCn2c(SCc3cc(=O)oc4cc(O)ccc34)nc3ccsc3c2=O)cc1	0
COCOc1ccc(-c2nc(-c3ccncc3)cnc2N)cc1	0
C[C@H](Nc1cncc(-c2cccc(OC(F)(F)F)c2)n1)c1ccccc1	0
CC(CCc1ccccc1)NCC(O)c1cccc([N+](=O)[O-])c1 (stereo not given)	2.38
COc1cc(OC)cc(C(=O)Nc2cc(C(=O)N3CCC(Cc4ccccc4)CC3)ccc2N2CC3CC(C2)c2cccc(=O)n2C3)c1 (stereo not given)	0
CC(=O)C1C(=O)c2c(cccc2[N+](=O)[O-])C1=Nc1ccccc1C (stereo not given)	0
Cn1cnnc1SCC(=O)Nc1ccccc1C(F)(F)F	0
CCOC(=O)CCCSc1nc(-c2cccs2)cc(C(F)(F)F)c1C#N	7.27
O=C(NCCCCNc1ccnc2cc(Cl)ccc12)c1cc(C(F)(F)F)cc(C(F)(F)F)c1	1.85

Structure (SMILES)	IFI [%]
Clc1ncnc2ncn(Cc3ccccc3)c12	0
CCOC(=O)c1cnc2ccc(CC)cc2c1O	0
Cc1ccc(F)cc1NC(=O)Cn1c2ccccc2c(=O)c2cc(Cl)ccc21	0
Cc1cc(C)n(CC(O)Cn2c3ccc(I)cc3c3cc(I)ccc32)n1 (stereo not given)	0.725
CCCC(=O)Oc1ccccc1-c1nc2cc(C)ccn2c1NC(C)(C)CC(C)(C)C	4.63
OC1(c2cccc3ccccc23)CCN(Cc2ccccc2)C1 (stereo not given)	2.17
COc1ccccc1C(=O)NN=C(C)c1cccnc1	0.73
Cc1cc(NC(c2cccc(Br)c2)c2ccc3cccnc3c2O)no1 (stereo not given)	4.35
Cc1c(Cl)cccc1NC(=O)C1C(C(=O)O)C2C=CC1C21CC1 (stereo not given)	7.69
Cc1n(N)c2ccccc2[n+]1CC(=O)c1ccc([N+](=O)[O-])cc1	0
Cc1nc2ccc(-c3ccc4nc(C)[nH]c4c3)cc2[nH]1	3.08
CCCNC(=O)N1CCC2(CC1)CC(=O)c1ccccc1O2	0
O=C(COc1ccc(-c2ncccn2)cc1CN1CCCCCC1)NCc1ccccc1C(F)(F)F	2.8
Cc1cc2c(cc1C)NC(c1ccc(Cl)c(F)c1)C1=C(CC(C)(C)CC1=O)N2 (stereo not given)	1.21
CCN(CC)C1SC=C(c2ccc([N+](=O)[O-])cc2)S1 (stereo not given)	0
CC(c1nc2ccccc2c(=O)n1-c1ccc(Br)cc1)N1CCN(S(=O)(=O)c2ccc3ccccc3c2)C(C)C1 (stereo not given)	1.87
CCCCCCCCn1c(C)[n+](CC)c2cc(C(=O)OCC)ccc21	7.14
O=c1cc[nH]c2cc(N3CCCCCC3)c(F)cc12	0
CC(=NNc1nc(-c2ccccc2O)nc2ccccc12)c1ccccc1O	0
CN(C)c1nnc(/C(C#N)=C/c2cc(C(=O)c3cccc(Cl)c3)cn2C)o1	0.848
CC(=O)NC1=NN(C(C)=O)C(c2ccc(Br)cc2)S1 (stereo not given)	2.13
O=S(=O)(Oc1ccc2ccccc2c1Cc1c(OS(=O)(=O)c2ccccc2)ccc2ccccc12)c1ccccc1	0
CCCCCCN(C(=O)COCc1ccccc1)C(C)c1nc2ccccc2c(=O)n1-c1cccc(Cl)c1C (stereo not given)	0.935
CCCCC(=O)N(C/C=C/c1ccccc1OC)CCN1CCN(C(=O)NC23CC4CC(CC(C4)C2)C3)CC1	2.75

Structure (SMILES)	IFI [%]
c1cc2cc3c(cc2c2cc4c(cc12)C[N+]1(CCCC1)C4)C[N+]1(CCCC1)C3	1.54
CS(=O)(=O)c1ccccc1S(=O)(=O)N1CCC(NC(=O)c2ccccc2Cl)(C(=O)O)CC1	2.94
O=C(Cn1c(=O)oc2cc(Cl)ccc21)c1ccccc1	1.51
Cc1cc(-c2cnc(C)nc2C2CCN(C(=O)c3ccc4ncccc4c3)CC2)on1	0
CN(C)C(=O)C1C2NC(=S)N(c3ccccc3)C1(C)Oc1ccccc12 (stereo not given)	0
CCCCCCCCCCCCCC(=O)Oc1ccccc1-c1nc2cc(C)ccn2c1NC(C)(C)CC(C)(C)C	3.7
CCOC(=O)C1=C(N)N(c2cccc([N+](=O)[O-])c2)C2=C(C(=O)CC(C)(C)C2)C1c1ccc(Cl)cc1 (stereo not given)	0
O=C(C(Cc1ccc(O)cc1)c1ccccc1)N1CCC(n2c(Cc3ccc(F)cc3)nc3cccnc32)CC1 (stereo not given)	7.07
CCOC(=O)c1cnc2ccc(C)cc2c1NCCCN1CCOCC1	4.76
COc1cc(OC)cc(-n2nc(C(=O)NCCCN3CC(C)CC(C)C3)c3ccccc3c2=O)c1 (stereo not given)	0
CCOC(=O)C1=C(C)NC2=C(C(=O)CC(c3ccc(OC)c(OC)c3)C2)C1c1ccccc1OC (stereo not given)	2.33
CCc1ccccc1N=C1c2c(cccc2[N+](=O)[O-])C(=O)C1C(C)=O (stereo not given)	0
O=C(CSc1nc(NCc2ccccc2)c2ccccc2n1)NCc1ccco1	0
COCCOC(=O)C1=C(C)NC2=C(C(=O)CC(c3ccc(OC)c(OC)c3)C2)C1c1ccc(Cl)cc1Cl (stereo not given)	3.53
O=C1N(Cc2cc3ccccc3s2)CC2CN(Cc3cccc4c3OCO4)CCN12 (stereo not given)	1.39
Cc1cccc(N2C(N)=NC(N)=NC2(C)C)c1	0
Cc1nc(-c2ccccc2)nc(C(=O)N2CCN(C(=O)NC3CCCCC3)C(C)C2)c1C(=O)OC(C)C (stereo not given)	2.83
O=C(c1cccc([N+](=O)[O-])c1)c1ccc(Cl)c(Cl)c1	0
CCCCNC(=O)C(c1cccc(OC)c1)N1C(=O)c2cc(OCCCC)ccc2NC(=O)C1CO (stereo not given)	0.98
CN(C)c1ccc2c(c1)Sc1cc(N(C)C)ccc1N2C(=O)c1ccccc1	3.88
CCc1c(C)c(=N)c2ccccc2n1C	0
Cc1nc([P+](c2ccccc2)(c2ccccc2)c2ccccc2)c(SCc2ccccc2)o1	21.6
Cc1oc(C)c2c(=O)cc(-c3cccs3)cc(O)c12	2.75
CCN1/C(=C/c2sc3ccc(OC)cc3[n+]2CC)C=Cc2cc(OC)ccc21	15.4

Structure (SMILES)	IFI [%]
COCCNC(=O)c1ccc(OC2CCN(CC(c3ccccc3)c3ccccc3)CC2)c(OC)c1	1.37
CCC(Oc1ccc(C(C)(C)CC)cc1C(C)(C)CC)C(=O)Nc1ccc([N+](=O)[O-])cc1O (stereo not given)	0
Cc1ccc(-n2c(C(C)N(CCc3ccccc3)C(=O)c3cccc(F)c3)nc3ccccc3c2=O)c(C)c1 (stereo not given)	0.943
CCCC(=O)NC(c1ccc(Cl)cc1)c1ccc2cccnc2c1O (stereo not given)	16
CCOC(=O)C1=C(C)NC2=C(C(=O)CC(C)(C)C2)C1c1ccc(Cl)cc1 (stereo not given)	0
CCCCCc1ccc(C(=O)Oc2ccccc2-c2nc3cc(C)ccn3c2NC(C)(C)CC(C)(C)C)cc1	4.35
CCCC1=NN(c2nc3ccccc3s2)C(=O)C1	0
Brc1ccc(C=Nc2ccc(-c3nc4cc(-c5ccc6[nH]c(-c7ccc(N=Cc8ccc(Br)cc8)cc7)nc6c5)ccc4[nH]3)cc2)cc1	23.1
Clc1ccccc1C(c1ccccc1)(c1ccccc1)n1ccnc1	0
O=C(c1ccccc1)N1CCN(CC(O)COCc2ccccc2)CC1 (stereo not given)	2.7
Nc1nc(N)c2cc(S(=O)(=O)N3CCSCC3)ccc2n1	17.7
CCOc1ccc2nc3ccc([N+](=O)[O-])cc3c(NC)c2c1	7.14
COC(=O)c1cc(NC(=S)NC(=O)c2c(OC)cccc2OC)cc(C(=O)OC)c1	0
O=C(c1nccs1)C1CCN(C(=O)c2cscn2)CC1	0
CC1(C)CC(NC(=O)Cc2ccc(Cl)cc2)CC(C)(C)N1	0
COC(=O)c1c(NC(=O)c2ccc(S(=O)(=O)N3CCOCC3)cc2)sc2c1CCN(C(C)=O)C2	0
C=CCNC(=O)c1ccc2c(c1)N=C(CC(C)c1ccccc1)N(CCCN1CCCC1=O)C2 (stereo not given)	1.24
Cc1cccc(C)c1NC(=O)N1CCN(C(=O)c2nc(-c3ccccc3)nc(C)c2C(=O)OC(C)C)CC1C (stereo not given)	2.8
COc1ccc(NC(=O)c2cnn(-c3ccccc3)c2NC(=O)c2ccco2)cc1	1.18
CCC1=[N+](C)c2cccc3cccc(c23)N1C	3.12
Cc1cc(C)cc(NCC(O)Cn2c3ccc(Cl)cc3c3cc(Cl)ccc32)c1 (stereo not given)	5
CCCN1CCN(C(=O)C(=O)Nc2ccc3nc4n(c(=O)c3c2)CCCCC4)CC1	0
Ic1ccc(NCc2cn3ccccc3n2)cc1	8.21

— ChEMBL document CHEMBL1156829
